Measurements published in PubChem BioAssay AID488969 (Vanderbilt High Throughput Screening Facility, 2010).
Whole data set: some 110,000 compounds, median “z-score” near -0.1, cut for the highest 2% near 2. The list shows a part of the results. Activity calls are given as the source filed them.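 The calls were made as follows: active = z-score in the third read window above 3 or below -3; inactive = the rest.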

Biological target: Metabotropic glutamate receptor 8 (Rattus norvegicus) (UniProt P70579)
Assay: mGluR8 Gi/Go-coupled signaling modulation – cell-based, rat, thallium flux, HTS, primary screen (AID 488969)
Details: HEK293 rat mGluR8, GIRK (G protein-gated inwardly rectifying potassium channel) thallium flux, FluoZin2; at 10 µM; stronger effect = higher value; submaximal glutamate (EC20) added with thallium

Sequence of UniProt P70579 (P70579 whole entry, looked up): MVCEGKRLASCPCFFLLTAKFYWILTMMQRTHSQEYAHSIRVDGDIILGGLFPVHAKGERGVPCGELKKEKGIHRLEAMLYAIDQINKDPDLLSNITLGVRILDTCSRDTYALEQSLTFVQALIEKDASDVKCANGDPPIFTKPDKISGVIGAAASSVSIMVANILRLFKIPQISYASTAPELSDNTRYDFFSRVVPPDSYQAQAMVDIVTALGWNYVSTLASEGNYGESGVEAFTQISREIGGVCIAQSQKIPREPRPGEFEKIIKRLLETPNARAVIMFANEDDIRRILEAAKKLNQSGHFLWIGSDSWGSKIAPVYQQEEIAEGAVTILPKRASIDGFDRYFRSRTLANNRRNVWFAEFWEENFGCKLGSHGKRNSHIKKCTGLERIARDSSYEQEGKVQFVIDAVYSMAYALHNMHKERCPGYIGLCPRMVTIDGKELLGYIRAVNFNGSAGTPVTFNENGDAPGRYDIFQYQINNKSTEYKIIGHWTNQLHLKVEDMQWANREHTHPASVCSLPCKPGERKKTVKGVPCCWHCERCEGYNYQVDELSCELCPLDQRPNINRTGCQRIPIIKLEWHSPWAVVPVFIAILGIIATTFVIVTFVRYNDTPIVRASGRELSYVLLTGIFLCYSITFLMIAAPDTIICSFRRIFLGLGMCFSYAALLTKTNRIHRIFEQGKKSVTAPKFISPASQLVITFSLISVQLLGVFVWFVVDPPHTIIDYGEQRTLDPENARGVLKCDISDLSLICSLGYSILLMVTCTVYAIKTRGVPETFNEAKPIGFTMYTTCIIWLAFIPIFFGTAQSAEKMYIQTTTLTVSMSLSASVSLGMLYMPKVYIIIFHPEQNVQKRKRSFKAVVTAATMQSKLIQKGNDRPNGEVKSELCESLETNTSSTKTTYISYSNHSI

Row | Structure (SMILES) | z-score
1 | COc1ccc(OCC(=O)Nc2ccc(S(=O)(=O)Nc3cc(C)nc(C)n3)cc2)cc1 | 0.312
2 | CN(C)c1cc2c(c(N(C)C)c1)C(=O)c1ccccc1C2=O | 0.0524
3 | CCc1nc(SCC(=O)NNC(=O)C(C)C)c2ccccc2n1 | -0.00759
4 | COc1ccc(OCC(=O)NNC(=O)c2nn(C)c(=O)c3ccccc23)cc1 | -0.547
5 | O=C(c1ccco1)c1cc2c(ccc3ccccc32)oc1=O | -0.33
6 | CN=C(Nc1cc(Cl)ccc1Cl)SC1CC(=O)N(c2ccc(C(=O)OC)cc2)C1=O (stereo unspecified) | -0.472
7 | CN(C(=O)c1ccc(S(=O)(=O)NC2CCCC2)cc1)C1CCCCC1 | -0.345
8 | O=C(CSc1nnnn1-c1cccc2ccccc12)N1CCOCC1 | -0.416
9 | COCCn1c(=O)[nH]c2cc(C(=O)NCCN3CCN(c4ccccc4F)CC3)ccc2c1=O | -0.59
10 | Cn1c(CN2CCCC2)nc2cc(NC(=O)COc3ccc(Cl)cc3)ccc21 | 0.175
11 | Cc1ccc(C(=O)n2nc(-c3cccnc3)nc2N)cc1 | 0.108
12 | Cc1cc(NCCN2CCOCC2)n2ncc(-c3ccccc3)c2n1 | -0.397
13 | Cc1sc2ncnc(SCC(=O)NCC(C)C)c2c1C | -0.208
14 | CCc1nnc(N/N=C/c2ccc(N3CCC(C)CC3)c([N+](=O)[O-])c2)n1N | -0.0832
15 | CCn1cc(C(=O)NCCCN2CCC(C)CC2)c2cc(OC)c(OC)cc2c1=O | -0.227
16 | CN1C(=S)SC(N(O)C=C2C=CC(=O)C=C2)C1(C)C (stereo unspecified) | -0.214
17 | COc1ccc2c(c1)nc(SCC(C)O)n2C (stereo unspecified) | -0.199
18 | O=c1c(S(=O)(=O)c2ccc(Cl)cc2)cn(Cc2ccccc2F)c2ccc(F)cc12 | -0.124
19 | Cc1cc(NC(=O)CSc2nc3ccccc3c(=O)n2C2CCCC2)no1 | -0.447
20 | CCc1ccc(-c2nc(CCl)cs2)cc1 | -0.153
21 | CCc1ccc(Oc2cc(C)nc(N)n2)cc1 | -1.24
22 | Cc1cc(C)c(C#N)c(SCc2nnc(-c3ccccc3)o2)n1 | -0.765
23 | CCn1c(SCC(=O)Nc2ccccc2)nc2c1c(=O)n(C)c(=O)n2C | -0.188

Row | Structure (SMILES) | z-score
24 | Cc1ccc(C)c(OCC(=O)Nc2ccc3c(c2)OCO3)c1C | 1.06
25 | O=C1C2CCCCC2C(=O)N1c1cccc(OS(=O)(=O)c2ccccc2)c1 (stereo unspecified) | -0.275
26 | Cc1ccc(NC(=O)c2ccc(CSc3nccc(C)n3)cc2)cc1 | -0.0401
27 | CCn1c(SCC(=O)Nc2nc(C)c(C)s2)nnc1-c1cccs1 | 1.03
28 | CCOC(=O)/C(=N/Nc1ccccc1)Sc1nnnn1-c1ccc(C)cc1 | -0.485
29 | CCOC(=O)C1CCN(C(=O)c2ccccc2NS(=O)(=O)c2ccc(F)cc2)CC1 | -0.0607
30 | O=C(N/N=C1\CCc2ccccc21)c1ccccc1Cl | -0.225
31 | Cc1cccc(NC(=O)c2ccc(N(C)C3CCCCC3)c([N+](=O)[O-])c2)n1 | -0.132
32 | COc1ccccc1NC(CC(=O)c1ccccc1)C(=O)OCC(=O)c1ccc(C)cc1 (stereo unspecified) | -0.389
33 | O=C(/C=C/c1ccc2c(c1)OCO2)NCCSCc1ccc(Cl)cc1 | -0.407
34 | CCCc1c(C)nc2c(Br)cccc2c1Cl | 1.04
35 | COc1ccc(/C=N/NC(=O)CCc2n[nH]c(=O)[nH]c2=O)cc1O | -0.27
36 | CCCN(c1ccc(C(C)C)cc1)S(=O)(=O)c1c(C)[nH]c(=O)[nH]c1=O | -0.622
37 | CCOC(=O)/C(=N\Nc1cc(Cl)ccc1Cl)N1CCN(CC)CC1 | -0.196
38 | CC(C)(C)N(Cc1ccccc1)C(=O)CSc1nc2ccccc2c(=O)[nH]1 | -0.331
39 | COc1ccc(C(=O)NCCNC(C)=O)cc1S(=O)(=O)NCc1ccc(Cl)cc1 | -0.0319
40 | Cc1ccccc1Nc1nc(Nc2ccccc2C)nc(SC2=NCCS2)n1 | 0.438
41 | CCN1C(=O)N(c2ccc(Cl)cc2)C(C)=CC1(C)C | -0.57
42 | O=[N+]([O-])c1ccc(-c2ccc(C=Nc3cccc4ccccc34)o2)cc1 | -0.156
43 | CCOc1ccc(N(CC(=O)NC2CCCC2)S(=O)(=O)c2c(C)noc2C)cc1 | -0.0448
44 | CCOCCn1c(CN2CCC(Cc3ccccc3)CC2)nc2c1c(=O)n(C)c(=O)n2C | -0.268
45 | Cc1ccc(N(CC(=O)Nc2ccc(C)cn2)S(=O)(=O)c2c(C)nn(C)c2C)cc1 | -0.867
46 | COc1ccc(C(CNC(=O)c2cc(=O)[nH]c3ccccc23)N2CCCC2)cc1 (stereo unspecified) | 0.635

Row | Structure (SMILES) | z-score
47 | CC(C)CC(NC(=O)C1CCC(C)CC1)C(=O)NCc1ccccn1 (stereo unspecified) | -1.27
48 | Cc1csc(N2CCc3ccccc32)n1 | 0.0477
49 | O=C(OCC1CC(c2ccccc2)=NO1)c1ccc(Cl)cc1 (stereo unspecified) | -0.0879
50 | O=C(NCc1nnc(SCc2ccc(C(F)(F)F)cc2)n1-c1ccccc1)C12CC3CC(CC(C3)C1)C2 | -0.166
51 | COC(=O)c1cccc(NC(=O)CCc2ccccc2)c1 | -0.143
52 | Cc1ccccc1C(=O)NNC(=S)Nc1cccc(C(F)(F)F)c1 | -0.0547
53 | CSc1nc(NC(C)=O)nc(C)c1Br | 0.499
54 | CC12c3ccccc3C(c3ccccc31)C1C(=O)N(Cc3cccnc3)C(=O)C12 (stereo unspecified) | -0.146
55 | Cc1sc2nc(SC(C)C)nc(N)c2c1C | 0.466
56 | O=c1c2cnn(-c3ccc(F)cc3)c2ncn1Cc1ccc(F)cc1 | 0.631
57 | COc1ccc(-c2nnc(-c3ccc(N)cc3)o2)cc1 | 0.096
58 | Cn1c(=O)c2c(ncn2CC(=O)N2CCc3ccccc3C2)n(C)c1=O | -0.486
59 | O=C(NCc1cccnc1)c1ccccc1[N+](=O)[O-] | -0.0931
60 | COc1ccc(-n2nc(C(=O)NCC(=O)Nc3cccc(C)n3)c3ccccc3c2=O)cc1 | -0.275
61 | O=C(Nc1ccc(Cl)cc1)N(Cc1nc2ccccc2c(=O)[nH]1)Cc1cccs1 | -0.151
62 | CC(C)CC(=O)NC(=S)Nc1ccc(NC(=O)c2cccs2)cc1 | -0.132
63 | Cc1cc(C)nc(NS(=O)(=O)c2ccc(NC(=O)COc3ccccc3)cc2)n1 | -0.333
64 | CCOC(=O)c1c(-c2ccccc2Cl)cn2ccccc12 | -1.07
65 | CCc1cccc(NC(=O)CN(C)S(=O)(=O)c2cnc[nH]2)c1 | 1.29
66 | CN(CC(=O)Nc1ccc(F)c(Cl)c1)S(=O)(=O)c1cccc2nsnc12 | 0.992
67 | Cc1cccc(-c2noc(CCCOc3ccc(Cl)cc3Cl)n2)c1 | -0.125
68 | CC1CN(CC(=O)c2c(N)n(Cc3ccccc3)c(=O)n(C)c2=O)CC(C)O1 (stereo unspecified) | 0.178
69 | COc1ccc(-c2noc(CN(C(=O)C(C)(C)C)C(C)C)n2)cc1 | 0.401

Row | Structure (SMILES) | z-score
70 | CCn1c(/C=C/N(C)c2ccccc2)[n+](CC)c2ccc(Cl)cc21 | 0.51
71 | CC1CCCN(C(=O)c2ccc3c(=O)n(Cc4ccc5c(c4)OCO5)c(=S)[nH]c3c2)C1 (stereo unspecified) | 0.75
72 | CCOC(=O)C1CCN(C(=O)c2oc3ccc(S(=O)(=O)N4CC(C)CC(C)C4)cc3c2C)CC1 (stereo unspecified) | -1.94
73 | COC(=O)c1c(N)n(-c2cc(OC)cc(OC)c2)c2nc3ccccc3nc12 | -0.309
74 | O=C(C1CCC1)N1CCc2cc(S(=O)(=O)NCc3ccco3)ccc21 | 0.431
75 | COc1ccc(N(CC(=O)NCC2CCCO2)S(=O)(=O)c2c(C)noc2C)cc1 (stereo unspecified) | -0.0554
76 | CC(C)(C)C(=O)NC(=S)NCc1ccccc1 | -0.201
77 | C/C(=N/NC(=O)c1cnccn1)c1cccs1 | 0.746
78 | CCNC(=S)N/N=C1\CCCCc2ccccc21 | 1.57
79 | COc1ccc(S(=O)(=O)NCc2ccc3c(c2)cc(C)n3C)cc1 | -0.259
80 | COc1ccc(NC(=O)CSc2nc(C)cs2)cc1OC | -0.121
81 | C=CCn1c(Cc2csc(N)n2)nnc1SCC(=O)Nc1ccc(C(=O)OCC)cc1 | -2.2
82 | COc1ccc(S(=O)(=O)NNC(=O)c2cc3c4ccccc4n(C)c3s2)cc1 | -0.127
83 | CCn1c(/C=C/c2ccccc2)nc2ccccc21 | -0.168
84 | Cc1ccc(C(=O)NC(c2ccccc2)C(Cl)Cl)cc1 (stereo unspecified) | -0.518
85 | Cc1ccc(N=C2CCCN2Cc2ccccc2)c(C#N)c1 | active: -3.47
86 | COc1ccc(C(=O)NC(=S)Nc2ccc3c(c2)Cc2ccccc2-3)cc1 | 0.991
87 | CCOc1ccc(Cl)cc1S(=O)(=O)NCc1cccnc1 | -0.15
88 | O=C(Nc1cccnc1Cl)c1cc(-c2ccco2)on1 | -0.123
89 | C=CCSC1=N/C(=C\c2ccc3c(c2)OCO3)C(=O)S1 | -1.51
90 | CCCNC(=S)NC1CCCC1 | -0.0285
91 | Cc1cccc(NC(=S)NNC(=O)c2ccc(Br)o2)c1 | 1.14
92 | O=C1CC(c2ccccc2)CC(O)=C1C=NCCCN1CCOCC1 (stereo unspecified) | -0.184

Row | Structure (SMILES) | z-score
93 | Cc1ccc(Cn2cc(/C=C/C(=O)O)c(-c3ccccc3)n2)cc1 | -0.0908
94 | O=C(CCCn1c(SCC(=O)c2ccc(Cl)cc2)nc2ccccc2c1=O)NCc1ccco1 | -0.172
95 | CN(CC(=O)NCCc1ccccc1)S(=O)(=O)c1cnc[nH]1 | 0.0116
96 | Cc1cccc(N2CC(O)=C(c3nc4ccccc4n3C)C2=N)c1 | -0.0977
97 | CCOC(=O)CSC1=NC(=O)/C(=C\c2ccc(Cl)cc2)S1 | 0.239
98 | Cc1cc(Cl)ccc1OCC(=O)Nc1ccccc1CO | -1.05
99 | Clc1ccccc1CSc1ncn(-c2ccccc2)n1 | -0.246
100 | O=C1CC(NNc2ccccc2)C(=O)N1c1cccc(Cl)c1 (stereo unspecified) | -0.117
101 | Cc1cc(C(C#N)c2cccc(Cl)c2)n2ncnc2n1 (stereo unspecified) | -0.553
102 | O=C(C1CCN(S(=O)(=O)N2CCC3(CC2)OCCO3)CC1)N1CCc2ccccc2C1 | -0.437
103 | COC(=O)/C=c1\sc2ncnn2c1=O | 0.574
104 | O=C(COc1ccc(Cl)cc1Cl)NCCCCc1ccccc1 | -0.144
105 | CCNC(=S)N1CCC(c2nc3ccccc3s2)CC1 | -0.222
106 | Oc1ccccc1C1OCC2(CO1)COC(c1ccccc1O)OC2 (stereo unspecified) | -0.183
107 | Cc1cccn2c(=O)c(/C=C(\C#N)S(=O)(=O)c3ccc(Cl)cc3)c(N3CCC(C(N)=O)CC3)nc12 | -1.36
108 | COc1cc(C(O)P(=O)(OC2CCCCC2)c2ccc(N(C)C)cc2)cc(OC)c1OC (stereo unspecified) | -0.302
109 | Clc1ccc2c(N/N=C/c3ccc(Br)cc3)ccnc2c1 | -0.258
110 | CC(NC(=O)Cc1ccc(-c2ccccc2)cc1)c1ccccc1 (stereo unspecified) | -0.225
111 | CCOC(=O)c1ccc(NC(=O)N2CCN(Cc3cccc(F)c3)CC2)cc1 | -0.775
